This sample is rich in variants without activity.

B1: tRNA (parent)
chain: CUCUCGGUAGCCAAGUUGGUUUAAGGCGCAAGACUUUAAUUUAUCACUACGAAAUCUUGAGAUCGGGCGUUCGACUCGCCCCCGGGAGAUUUUUUCCUCGAGCAA

Variants of B1 are the subject of the data set. The experiment in a line: nonsense suppression (GFP-seq) (ratio to wild type); higher = more function; SUP4oc tRNA, yeast GFP reporter sort-seq. Put shortly:
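Yeast were grown in raffinose/galactose medium with 80 mg/L adenine, each strain bearing a genome-integrated ochre-suppressor tRNA variant from a ~3% random-mutation library, a galactose-driven GFP ochre reporter, and RFP. After sorting into GFP/RFP bins, every bin was sequenced on an Illumina platform at phred ≥30. The GFPSEQ value, a measure of nonsense suppression, is the weighted bin median GFP/RFP relative to the unmutated parent tRNA, using each variant's estimated cell share per bin as the weight. Only variants with ≥100 reads and ≥30 cells were included.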
Regarding CUCUCGGUAGCCAUGUUGGUUUAAGGCGCAAGACUUUAAUUUAUCACUACGAACUCUUGAGAUCGGGCGUUCGACUCGCCCCCGGGAGAUUUUUUCCUCGAGCAA [A14U A54C], the nonsense suppression is at most 0.026.

As for CUCUCGGUAGCCAAGUUGGUUUAAGGCGCAAGACUUUAAUUUAUCACUACGAAAUCUUGAUAUCGGGGGUUCGACCCGCCCCCGGGAGAUUUUUUCCUCGAGCAA [G61U C68G U76C], the nonsense suppression was at most 0.026. In the case of CUCUCGGUAGACAAGUUGGUUUAAGGCGCAAGACUUUAAUUUAUCACUACGAAAUCUUGAGAUCGUGGGUUCGACUCGCCCCCGGGAGAUUUUUUCCUCGAGCAA [C11A G66U C68G] it was at most 0.026; in that of CUCUCGGUAGGCAAGUCGGUUUAAGGCGCAAGACUUUAAUUUAUCACUACGAAAUGUUGAGAUCGGGCGUUCGACUCGCCCCCGGGAGAUUUUUUCCUCGAGCAA [C11G U17C C56G], at most 0.026; in that of CUCUCGGUAGCCAAGUUGGUUUAGGGCGCAAGACUUUAAUUUAUCACUACGAAAUCUUGAGAUCGGGCGUUCGACUCGCCCCCGGGACAUUUUUUCCUCGAGCAA [A24G G88C], at most 0.026. For the variant CUCUCGGUAGCCAAGUUGGUUUAAGGCGCAAGACUUUAAUUUAUCACUACGAAAUCUUGAGAUCGGGCCUUCGACUCGCUCCCGGGAGAUUUUUUCCUCGAGCAA [G69C C80U], the nonsense suppression was at most 0.026. In the case of CUCUCGGUCGCCAAGUUGGUUUAAGGCUCAAGACUUUAAUUUAUCACUACGAAAUCUUGAGAUCGGCCGUUCGACUCGCCCCCGGGAGAUUUUUUCCUCGAGCAA [A9C G28U G67C] it was at most 0.026; in that of CUCUCGGUAGCCAAGUUGGUUUGAGGCGCAAGACUUUAAUUUAUCACUACGAAAUCUUGAUAUCGGGCGUGCGACUCGCCCCCGGGAGAUUUUUUCCUCGAGCAA [A23G G61U U71G], at most 0.026; in that of CUCUCGGUAGCCAAGUUGGUUUAAGGCGCAGGACUUUAAUUUAUCACUACGAAAUCUUGCGAUCGGGCGUUCGACUCGCCCCCGGGAGAUUUUUUCCUCGAGCAA [A31G A60C], 0.177. Regarding CUCUCGGUAGCCAAGUUGGUUUAAGGCGCAAGACUUUAAUUUAUCACUACGAAAUCUUGAGAUCGGGCGUUCGACACGCCCACGGGAGAUUUUUUCCUCGAGCAA [U76A C82A], the nonsense suppression was at most 0.026.

Consider CUCUCGGUGGCCAAGUUCGUUUAAGGCGCAAGACUUUAAUUUAUCACUACGAAAUCUUGAGAUCGGGCGUUCGACUCGCCCCCGGGAGAUUUUUUCCUCGAGCAA [A9G G18C], for which the nonsense suppression was at most 0.026. For CUCUCGGUAGCCAAGUUGGUUUAAGGCGCAAGACUUUAAUUUAUCACUACGAAAUCUUGAGAUCGGGCGUUCCGCUCGCCCCCGGGAGAUUUUUUCCUCGAGCAA [G73C A74G], the nonsense suppression was at most 0.026. In the case of UUCUCGGUAGCCAAGUUGGUUUAAGGGGCAAGACUUUAAUUUAUCACUACGAAAUCUUGAGAUCGGCCGUUCGACUCGCCCCCCGGAGAUUUUUUCCUCGAGCAA [C1U C27G G67C G84C], the nonsense suppression is at most 0.026. Consider CUCUCGGUAGCCAAGUCACUUUAAGGCGUAAAACUUUAAUUUAUCACUACGAAAUCUUUAGAUCGGGCGUUCGACUCGCCCCCGGGAGAUUUUUUCCUCGAGCAA [U17C G18A G19C C29U G32A G59U], for which the nonsense suppression was at most 0.026. For CUCUCGGUAGCUAAGUUGGUUUAAGGCGCAAGACUUUAAUUUAUCACUACGAAACCGUGAGAUCGGGCGUUCGACUCGCCCCCGGGAGAUUUUUUCCUCGAGCAA [C12U U55C U57G], the nonsense suppression is at most 0.026. In the case of CUCUGGGUAGCCAAGGUGGUUUAAGGCGCAAGACUUUAAUUUAUCACUACGAAAUCUUGAGAUCGGGCGUUCGACUCACCCCCGGGAGAUUUUUUCCUCGAGCAA [C5G U16G G78A] it was at most 0.026; in that of CUCUCGGUAGCCAAGUUGGUUUAAGGGGCAAGUCUUUAAUUUAUCACUACGAAAUCUUGAGAUCGGACGUUCGACUCGCCCCUGGGAGAUUUUUUCCUCGAGCAA [C27G A33U G67A C83U], at most 0.026; in that of CUCUCGGCAGCCAUGUUGGUUUAAGGCGCAAGACUUUAAUUUAUCACUACGAAAUCUUGAGAUCGGGCUUUCGACUCGCCCCCGGGAGAUUUUUUCCUCGAGCAA [U8C A14U G69U], at most 0.026. Under CUCUCGGUAGUCAAGUUGGUUUAAGGCGCAAGACUUUAAUUUAUCACUACGAAAUCUUGAGAUCGGGCGUUCGACUCGCCCCCGGUAGAUUUUUUCCUCGAGCAA [C11U G86U] stands at most 0.026; under CACUCGGUAGCCAAGUUGGUUUAAGGCGCAAGACUUUAAUUUAUCACUACGAAAUCUUGAGAUCGGGCCUUGGACCCGCCCCCGGGAAAUUUUUUCCUCGAGCAA [U2A G69C C72G U76C G88A], at most 0.026; under CUCUCGAUAGCCAAGUUGGUUUAAGGCGUAAGACUUUAAUUUAUCACUACGAAAUCUUGAGAUCUGGCGUUAGACUCGCCCCCGGGAGAUUUUUUCCUCGAGCAA [G7A C29U G65U C72A], at most 0.026.

Take CUCGCGGUAGCCAAGUUGGUUCAAGGCUCAAGACUUUAAUUUAUCACUACGAAAUCUUGAGAUCGGGCGUUCGACUCGCCCCCGGGAGAUUUUUUCCUCGAGCAA [U4G U22C G28U]: the nonsense suppression was at most 0.026.

Consider CUCUCGGUAGCCAAGUUGGUUUAAGGCGCAAGACUUUAAUUUAUCACUACGAAAUCUUGAGAUCGGGCGUUGGACUCGCACCCGGGAGAUUUUUUCCUCGAGCAA [C72G C80A], for which the nonsense suppression was at most 0.026. Under CUCUCGGUAACCAAGUUGGUUUAAGGCGCAAGACUUUAAUUUAUCACUACGAAAUAUUGAGAUCGGGCGUUCGACUCGCCCCCGGGAGAUUUUUUCCUCGAGCAA [G10A C56A] stands at most 0.026; under CUCUCGGUAGCCAAGUUGGUUUAAGGUGCAAGACUUUAAUUUAUCACUACGAAAUCUUAAGAUCGGGCUUUCCACUUUCCCCCGGGAGAUUUUUUCCUCGAGCAA [C27U G59A G69U G73C C77U G78U], at most 0.026; under CUCUCGGUGGCCAAGUUGGUUCAAGGCGCAAGACUUUAAUUUAUCACUACGAAAUCUUGAGAUCGAGCGUUCGACUCGCCCCCGGAAGAUUUUUUCCUCGAGCAA [A9G U22C G66A G86A], at most 0.026. Under CUCUCGGUCCCCAAGUUGGUUUAAGGCGCAAGACUUUAAUUUAUCACUACGAAAUCUUGAGAUCGGGCGUUCGACUCGCCCCCGGGAGAUUUUUUCCUCGAGCAA [A9C G10C] stands at most 0.026.

The record behind these values is the RNAGym collection of RNA variant scans (doi:10.1101/gad.245936.114).
